Experimental data: the supplement of paper PMC12632987
The full ranking holds about 1,800 sequences; the median of “median log2 fold change of GCK-ALFA target abundance (FLAG IP / Myc IP barcode read proportion)” is about 0.14, and the lowest 2% start at about -0.84. Some of the results follow.

T1: TRAF2, Q12933
T1 chain: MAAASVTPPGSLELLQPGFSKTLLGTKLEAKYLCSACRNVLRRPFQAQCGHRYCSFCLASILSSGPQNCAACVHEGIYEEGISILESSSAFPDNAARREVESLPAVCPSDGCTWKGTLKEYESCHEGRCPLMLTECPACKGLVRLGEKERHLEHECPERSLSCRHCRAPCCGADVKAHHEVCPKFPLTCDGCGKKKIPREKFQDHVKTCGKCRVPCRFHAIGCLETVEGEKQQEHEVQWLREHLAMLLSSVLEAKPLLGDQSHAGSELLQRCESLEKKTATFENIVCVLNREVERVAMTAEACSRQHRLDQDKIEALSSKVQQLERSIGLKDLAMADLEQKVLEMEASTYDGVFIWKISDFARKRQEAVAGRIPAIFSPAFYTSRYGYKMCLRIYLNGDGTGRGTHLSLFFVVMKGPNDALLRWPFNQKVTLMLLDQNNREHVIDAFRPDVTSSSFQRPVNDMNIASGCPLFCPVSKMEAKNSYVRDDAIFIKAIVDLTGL

B1: traf2_out_6_156_2418 (protein)
chain: MVEKIFKAAMKKIEELIKKLAEASEEKKIKYISEIAGTFYRALQELREAGASLEEIEAFAKRLLEETEKALKEAGLDESTRNLVLSSLNAVATVAIEEAK
B2: traf2_out_1_158_920 (protein)
chain: DTKVNLILATIKLVTDAQIQSAKDDGKEEAAKEIAKLGEKILELAKKLLEEEKKSVEELIKAIKELTEEAKKTVDEETAKEIERLERQVISGIKQVDKLM
B3: traf2_out_11_155_750 (protein)
chain: SEKLELLNKMTNEITDIFDEAREKADEIVEEAMEEHPEHAAELEAVREASRNYSPRSYILLMRDKFEELGLEEYAEKLKELIEESQKKANEIVKKTEEEL
B4: traf2_out_15_48_1340 (protein)
chain: STEELREVASEIADEIDAKKDEIAERLEALRPTAAPEVRAPLDRAIEAARHGHGNNTVLALLEELEPLLTPEQRAIVTELRDELAAVVREASRRMAEVLK
B5: traf2_out_11_104_643 (protein)
chain: LTREQAREFNDFAMEANDKAKALLAEVAAFLEAAGHAEEAAKVKALLAHPGSGISSYKNLLEELLPKLDAESKAKAEKAIKELEKLQKEVSEKLNELLEK
B6: traf2_out_17_178_1691 (protein)
chain: SKEEERKKISEYTDKLIDLTEATGRELLARARADGTVSPAELAALEAAIRRGSNRTFLALARRIVPKLATAAEAAALLAAWEAEARELAKKIAEAYKKYE
B7: traf2_out_5_189_2325 (protein)
chain: SAREAEQAALRARARRLTKRATELLNELKEKGASYEEIIKALLEELKKLSIEDANLYRGIAYAILLGDALANNDEELIKAAEEFREKATKLIEERKKEAA
B8: traf2_out_6_3_2520 (protein)
chain: MEESIRRDARTVLENMGITTAEQLKRLVEANVNAVKKLVSRPDVDEADLAGARSVLALTRAMVDVAAETLPDLTPEQVAEMKALIKEAEELVEKKRKELE
B9: traf2_out_13_95_1181 (protein)
chain: SEETKKKINEIADKMIEEVEKVLTEAAEKVKDDPEVKAALDAIKETARTKGISTAIHELEKLAKANPKHKELLKEALEKIKEIRREAGKEVAKIIKEEKE
B10: traf2_out_9_108_2576 (protein)
chain: MSEEEKLEEIFEKILKLAEEFLKENDLSEELKEDLLAAIEQARKLYEEGEKRTAIILLAISLANISFKLGEEVVEKVLKRLKEIDKRAYSAAERMVKLLK
B11: traf2_out_20_38_2003 (protein)
chain: SEEEEEERKLEEIIEVANEAYDEATERIAAMVAAGKTVEEIAAEVRAEVTRLLDAAGLEEERDELLADIDRALASPNALRLFARILARARALVKQKELNK
B12: traf2_out_16_104_1380 (protein)
chain: AAAKQAAFDAIIARLNAIADEANRLANELYELMKTASPEKKVELSDALVRVSELRRRALQAAIDAEQARKDGGDLAAAQATLAELEAELAKLRKEVEALK
B13: traf2_out_11_169_877 (protein)
chain: EEAEFNRELNDFALELNDEAKEKLKEFSLKLAKELGLDVEEIEKIFEKNKNKSLSYVASELIRYFKEKGKEEAAQEVLEKYEELKEEINKKFSEKLKELK
B14: traf2_out_6_156_2381 (protein)
chain: KKEEILKEAKEEIEKQIKALSEAPEEKKIAYINKIAGTVYKALQKLRELGASLEELKEFTERIKEFVKKQLDKYGLDESTKNLILGSINAVGEVALRNAA
B15: traf2_out_19_16_1967 (protein)
chain: MEEEVEAIEERLERIEEEVERLERYFEENEETLTREELSDLLVELSELRREAQELRERLLELEGLDPERVEALIERAEEIIERAQRLMNRVVDKYLELLK
B16: traf2_out_9_17_2629 (protein)
chain: AAREARRRETIRATADAFLDELEAEGVISPESVAKIRAAIDAAEARGLSPEELRAAVVGTLATTLLFDEKKSVKEANEYAGRLYRRIREALARTDAELAA
B17: traf2_out_6_3_2517 (protein)
chain: MEESIRKDARTVLENMGITTVEQLKKLVEANVNAVKKLVSRKDVDRADLAAANSVLNLTRAMVEVAAETLPDLTEEDVKEMNALIDEARELIEKKKKELE
B18: traf2_out_13_95_1164 (protein)
chain: SEEKTKKEREIASKAYDEMEEVATEYAEKVRALIDDPEAAALMDEVVRNMNEFTLEHATDELIARYPEKAEELEKLRDEALEKMREIRKKTTKELNEIEK
B19: traf2_out_17_178_1670 (protein)
chain: DKEEERKKISELTDKLIDLTEATAERLLALARAEGALSPEELALLEAALRSGSANTFLAVARRLAPKLPSAEEAQAILDAFEAEYKKLSKEIAEAYKKYE
B20: traf2_out_20_3_2083 (protein)
chain: EELEKKLEEELEKAIKLLKEAAKLADEETAKKLKELIKKIKESRELSPVDRLVVLSEVRREVLLLAQQAKAEGNEELAKILEEAAEALNRAMNLLMKIIE
B21: traf2_out_16_171_1429 (protein)
chain: SAEERAERIREEAERRAREIKERLELMRESLPLIQKELGWSKETILRSFESRARELIEEFERWIEEQKPKVDEETREYLERLLEELKRHAEELIRELREE
B22: traf2_out_9_108_2578 (protein)
chain: MTEEERLEEIFKKILELAEEFLEENDLSEELRESLLAAIEQAEKLYKEGEKRTAIILLAISLARVSYEVGEEVVEKVLKRLEEIDPRAYSAARRMVELLK
B23: traf2_out_18_54_1949 (protein)
chain: AELEALKEEARKVIEEWEEKVLALVADDPELQAMVREMRERVLRALETEGLWAAVTVFRRESTELIAAITDPEVADAVGDIAAEARNKLAKLAIEYEKAK
B24: traf2_out_14_149_1252 (protein)
chain: SETEKKKEALKKAAELMEEIIKILEKALKAGSTDVDMEKIKALVEEAKKILKEQGFVLGHLLAIEDMLETTKEFTLEDIKALKELAEKARESLLVLAEML
B25: traf2_out_17_178_1696 (protein)
chain: SKEEILKKISELTDELIDLADKYGTELIEKAKAEGVLTPEELARLEAALASGSNRTLLATAKEIIPKSKASEETKKLLAEFEAEYRKLAKKIAEAYEKYE
B26: traf2_out_17_178_1746 (protein)
chain: DKEKLKKKINELNGKIADVDDKLIEEIVKLAEADPTLSPEAKAAIKAAARAGSARTAAALFLENSTDPELKKEAKELLAKAAKEKNKLADEILKAIEEMK
B27: traf2_out_8_144_2535 (protein)
chain: MMSRRELANRLANALVELDELKELADEETKEVLTKARRHIGQALNLVVFGGPREEILKEIEKAIEYLKEAKKLVEDNPELKEKVEKILKELKEIAKNVKE
B28: traf2_out_18_3_1922 (protein)
chain: KEEERQKISDEIDEVLDETRARAREELARGKKEIPEYAERFEELEALLEAGAGPFGILDEIAELYREAGLEEEAEEVERFRREKRRKMQELVDKYEELIK
B29: traf2_out_11_155_722 (protein)
chain: EKKREAQNKIVDFSLEVGDELLKEVEAIIAEVAERDPAVAAELRAIVARHLRFSATSAARAAIDALRERGLEEEAERLEKALEEAQKRKSEEIKRIEEEL

Molecular target: T1, TRAF2, Q12933
Assay: median log2 fold change of GCK-ALFA target abundance (FLAG IP / Myc IP barcode read proportion) (log2 ratio); each designed protein is fused to an ALFA-tag nanobody in HEK293 cells to bring the named protein to FLAG-tagged glucokinase (GCK); Myc marks an untargeted standard; higher = target protein stabilised (more abundant)
Details: target protein: 3xFLAG-MCP-GCK-ALFA reporter; HEK293 landing pad (RPLP)
How it was run: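 HEK293 landing-pad cells received a recombined binder library fused to the ALFA nanobody and were induced with 2 μg mL^−1 doxycycline, then transfected with a plasmid encoding a FLAG-tagged target and a Myc-tagged standard. Lysates were collected after 48 h for anti-FLAG and anti-Myc immunoprecipitation, and the circular RNA barcodes were reverse transcribed, amplified and sequenced. Target abundance for each binder is the median log2 ratio of FLAG to Myc barcode read proportions. Barcodes had to reach a proportion of at least 10^−7 in both replicates, each binder needed at least 3 barcodes per replicate, a pseudocount of 10^−6 was applied, and the two replicates were pooled.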

Point of comparison: B26, “median log2 fold change” value 0.0249. Against it:
- B1 — lower, -0.284
- B2 — within 0.2 log units, 0.0658
- B3 — within 0.2 log units, 0.1
- B4 — higher, 0.311
- B5 — higher, 0.285
- B6 — lower, -0.561
- B7 — lower, -0.433
- B8 — lower, -0.989
- B9 — within 0.2 log units, 0.0976
- B10 — lower, -0.295
- B11 — lower, -0.767
- B12 — higher, 0.599
- B13 — higher, 0.412
- B14 — within 0.2 log units, -0.0372
- B15 — within 0.2 log units, -0.121
- B16 — within 0.2 log units, 0.00506
- B17 — lower, -1.1
- B18 — within 0.2 log units, 0.212
- B19 — within 0.2 log units, 0.0801
- B20 — higher, 0.61
- B21 — within 0.2 log units, -0.0449
- B22 — lower, -0.362
- B23 — within 0.2 log units, 0.046
- B24 — within 0.2 log units, 0.209
- B25 — within 0.2 log units, 0.138
- B27 — within 0.2 log units, 0.0969
- B28 — higher, 0.307
- B29 — within 0.2 log units, 0.206
